Measured values taken from PubChem BioAssay AID463173 (ICCB-Longwood Screening Facility, Harvard Medical School, 2010).
The whole screen tested about 52,000 compounds, of which about 4,300 (8.3%) were called active. No stated cut-off is given here; in the data, active means survival mostly below about 52% (no sharp cut-off); inactive means mostly above about 56%. Some of the results follow.

system: DeltatarO mutant; test: S. aureus survival, RN4220 and DeltatarO strains – OD600, teichoic acid synthesis inhibitors, primary screen (AID 463173); conditions: S. aureus RN4220 wild type/DeltatarO growth, OD600, 18 h, hits give low values, screened at 18.75 µg/mL (by protocol)

| Compound | survival |
| --- | --- |
| Cc1ccc(NC(=O)CSc2nc3ccccc3c3nc(CCn4cncc4C)nn23)c(C)c1 | inactive: 75% |
| COc1cccc(-c2nc(CS(=O)(=O)CC(=O)Nc3cc(F)ccc3F)c(C)o2)c1 | inactive: 60% |
| O=C(NCCN1CCOCC1)Nc1c[nH]c2ccccc2c1=O | inactive: 102% |
| Cc1ccc(OCC(=O)N(Cc2ccco2)Cc2ccco2)cc1 | inactive: 50% |
| COc1ccc(-c2nnc(SCC(=O)NCc3ccccc3)nc2-c2ccc(OC)c(OC)c2)cc1OC | inactive: 73% |
| Cc1ccc(CN(Cc2ccco2)C(=O)COc2ccc(Cl)cc2Cl)cc1 | inactive: 96% |
| O=C(O)CN1C(=O)S/C(=C\c2ccccc2)C1=O | inactive: 83% |
| O=C(CN(C(=O)Cn1nnc(-c2cccs2)n1)c1ccc2c(c1)OCCO2)NCC1CCCO1 (stereo unspecified) | inactive: 99% |
| CCOc1ccc(NC(=O)Cc2ccc(NC(=O)N3CCCCc4ccccc43)cc2)cc1 | inactive: 73% |
| CC(C)(C)c1ccc(S(=O)(=O)c2cnc(SCC(=O)Nc3ccc(F)c(Cl)c3)[nH]c2=O)cc1 | inactive: 85% |
| O=C1CCCCC(=O)c2ccccc2N1 | inactive: 97% |
| CCOC(=O)c1cc(-c2ccc(F)cc2)n(CC(=O)NCc2ccc(OC)cc2)c1C | inactive: 75% |
| COC(=O)c1ccc([C@H]2Nc3ccc(S(=O)(=O)Nc4ccc(C)cc4)cc3[C@H]3C=CC[C@H]32)cc1 | inactive: 60% |
| N#Cc1ccccc1S(=O)(=O)N1CCCC(c2nc3c(nnn3Cc3cccc(Cl)c3)c(=O)[nH]2)C1 (stereo unspecified) | inactive: 78% |
| CC(C)CCNC(=O)CN1C(=O)c2cccnc2Oc2ccccc21 | inactive: 85% |
| CN(C)c1ccc(C(CNC(=O)c2ccccc2F)N2CCc3ccccc32)cc1 (stereo unspecified) | inactive: 105% |
| Cc1csc2nc(CCNS(=O)(=O)c3ccccc3)cn12 | inactive: 79% |
| O=C(NCc1ccco1)c1c[nH]c2ccc(S(=O)(=O)Nc3ccc(F)cc3F)cc2c1=O | inactive: 87% |
| Cc1nn(-c2ccccc2)c2c1N(CCCC(=O)NCc1ccc(Cl)cc1)C(=O)CS2 | inactive: 94% |

| Compound | survival |
| --- | --- |
| CCCCNc1nc2c(S(=O)(=O)c3ccc(Cl)cc3)nnn2c2ccsc12 | inactive: 58% |
| CN1CCN(C(=O)c2cnn(-c3cccc(Cl)c3)c2C2CCN(C(=O)OC(C)(C)C)CC2)CC1 | inactive: 95% |
| COc1cccc(CNC(=O)c2ccc3c(c2)N(Cc2ccc(C(F)(F)F)cc2)C(=O)c2ccccc2S3)c1OC | inactive: 108% |
| O=C(CSc1ccc(-c2cccs2)nn1)Nc1cccc(F)c1 | inactive: 103% |
| CCN1CCN(CCCNC(=O)c2ccc3c(c2)sc2nc(-c4ccc(C)cc4)cn23)CC1 | active: 26% |
| COc1ccc(-c2cc(C)no2)cc1S(=O)(=O)N1CC(C)Oc2ccccc21 (stereo unspecified) | active: -5% |
| Cc1ccc(NC(=O)NC2CCN(C(=O)N3CCOCC3)CC2)cc1 | inactive: 69% |
| CCCn1c(=O)c2sccc2n2c(CCCC(=O)Nc3ccccc3F)nnc12 | inactive: 89% |
| CN(C(=O)c1oc(=O)c2ccccc2c1-c1ccccc1)c1cccc(Cl)c1 | inactive: 46% |
| COc1ccc(-n2c(SCC(=O)NCc3ccccc3)nc3n[nH]c(C)c3c2=N)cc1 | inactive: 68% |
| CCOC(=O)Cn1c(=O)n(C2CCCCC2)c2nc(-c3cccc(C)c3)nc(C(N)=O)c21 | inactive: 97% |
| O=C1CC(c2cccc(F)c2)c2c(n3ncnc3[nH]c2=O)N1 (stereo unspecified) | inactive: 65% |
| COc1cccc(N2CCN(C(=O)Cn3ncc4c(=O)oc5ccccc5c43)CC2)c1 | inactive: 77% |
| CC(C)(C)c1ccc(S(=O)(=O)N2CCN(C(=O)c3cc(-c4ccc(Br)cc4)n[nH]3)CC2)cc1 | inactive: 135% |
| O=C(CSc1nc(O)c(C/C=C/c2ccccc2)c(=O)[nH]1)Nc1cccc(F)c1 | inactive: 84% |
| CCOc1ccc(NC(=O)c2noc3c2CSc2ccccc2-3)cc1 | inactive: 70% |
| O=C(NCc1ccc(Cl)cc1)C1CCN(S(=O)(=O)c2ccc3c(c2)CCCN3C(=O)C2CCC2)CC1 | inactive: 90% |
| COc1cc(-c2noc(-c3ccc(N4CCCCC4)c([N+](=O)[O-])c3)n2)cc(OC)c1OC | inactive: 57% |
| CCOCCc1nn2c(=O)cc(COC(=O)c3ccco3)nc2s1 | inactive: 88% |

| Compound | survival |
| --- | --- |
| O=C(Nc1ccc2oc(-c3cc(Br)ccc3Cl)nc2c1)c1ccc2ccccc2c1 | inactive: 76% |
| COc1cccc(CNC(=O)c2nnc(Cc3ccc(Cl)cc3)o2)c1 | inactive: 91% |
| Cc1cccc(-c2noc(-c3cc(-c4ccc(F)cc4)n[nH]3)n2)c1 | inactive: 117% |
| COc1cccc(N2CCN(C(=O)Cn3ncc4c5ccccc5n(C)c4c3=O)CC2)c1 | inactive: 78% |
| O=C(O)c1coc2ccccc12 | inactive: 76% |
| Cc1oc2ncn(C)c(=O)c2c1C(=O)NCc1ccccc1 | inactive: 64% |
| CCN1CCN(C(=O)c2cccc(F)c2F)CC1 | inactive: 85% |
| COc1cc(OC)cc(C(=O)Nc2nc(-c3nnn(-c4ccc(F)c(Cl)c4)c3C)ns2)c1 | inactive: 77% |
| COc1cccc(CN2CCc3nc(N4CCN(C)CC4)ncc3C2)c1 | inactive: 84% |
| COc1ccc(-n2nc(C(=O)N3CCN(c4cccc(C(F)(F)F)c4)CC3)c3c4ccccc4n(C)c3c2=O)cc1Cl | inactive: 129% |
| CCOc1ccc(CCNC(=O)Cc2ccc(NC(=O)N3CCSc4ncccc43)cc2)cc1 | inactive: 96% |
| Cc1ccc(NC(=O)Nc2ccc3nc(N4CCN(C)CC4)cc(C)c3c2)cc1C | inactive: 101% |
| CCCOC(=O)c1ccc(Nc2nc3ccccc3nc2-n2nc(C)cc2C)cc1 | active: 24% |
| C[C@@H](NC(=O)CN(c1ccccc1)S(=O)(=O)N(C)C)c1ccccc1 | inactive: 82% |
| Cc1cccc(C)c1NC(=O)NC1(C(=O)N2CCCCC2)CCCCC1 | inactive: 99% |
| CCOc1ccc(-c2cc(CCCC(=O)NCCc3ccc(OCC)c(OCC)c3)no2)cc1 | inactive: 70% |
| CCN1CCN(C(=O)c2ccc3c(c2)N(Cc2ccccc2F)C(=O)c2ccccc2S3(=O)=O)CC1 | inactive: 93% |
| Cc1ccccc1NC(=O)c1ccc(F)c(S(=O)(=O)NC2CCCC2)c1 | inactive: 83% |
